From the supplement of paper PMC11417369
± gives the standard deviation of the averaged measurements. The list shows a part of the results.

test system: PfAP2-G AP2 domain (GST-tagged); assay: gcPBM binding intensity (ln(normalized median fluorescence intensity)); higher = stronger DNA binding
Procedure, shortened: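 For binding intensity, the highest Masliner-normalised natural-log median intensity across replicate spots of either probe orientation was taken. Protein bound to the array was stained with Alexa488 anti-GST antibody and scanned at 488 nm. The protein, GST-tagged P. falciparum DNA-binding domains from E. coli at about 25 μg on average, had been applied for 1 h to an Agilent 4 × 180k array of primer-extended double-stranded 36-bp intergenic genomic probes and negative controls.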

In order of rising “gcPBM binding intensity (ln)” value:
1. AAAATAAATTTTTATGTTATATATACAATTTCTCTA [CACACA_negctrl_site1760]  9.44 ± 0.17
2. TTTTAATAATTTATAAAAAAAAAAAAAAAATAAATA [TGCATGCA_negctrl_site419]  9.52 ± 0.15
3. ATTTATTTTATAATATATAAATGATATATCTTATTA [CACACA_negctrl_site66]  9.55 ± 0.099
4. TATTGTATAAAAATAACATGCAATCCTTATACTGCT [TGCATGCA_site345]  9.62 ± 0.25
5. TATAATATTTATATAACACACATATATATTTATTTA [CACACA_site280]  9.73 ± 0.11
6. TATAAATTATAAATTGCACACATATTTTTATATTTA [CACACA_site8974]  9.82 ± 0.057
7. TATATATAGAAACACACACACATATATATATATTTT [CACACA_site2540]  9.83 ± 0.13
8. ATATCTATAATAAACACACACATATACCTATAGGTA [CACACA_site7596]  9.85 ± 0.057
9. AAAGAAAGAAAACACACACACATATATATATATCAA [CACACA_site3743]  9.85 ± 0.16
10. TAGATTTAAAAAAAAAAAAAATTTTTTTTTTTTTTT [TGCATGCA_negctrl_site593]  9.9 ± 0.18
11. AATATTTTTTTATAAACACACATATAAATAAATATA [CACACA_site7622]  9.945 ± 0.021
12. TATTTGGGTATTTTTACACACATTAAAATATATATA [CACACA_site5800]  9.96 ± 0.23
13. TTAATATTTGTTCTGATCCTTTTATTCAACTTTTTT [CACACA_negctrl_site536]  9.955 ± 0.007
14. TCTAATTTAAAATACACACACATATCTATAATATAT [CACACA_site7029]  9.96 ± 0.12
15. TTTTACGTGAGTAATACACACATATAAGTTTATATA [CACACA_site4120]  9.96 ± 0.16
16. TATAAATTAAAATCAGTGCATATTTTGAAAAACCTC  9.985 ± 0.078
17. TTATGAAATAGAATAACACACATATTTATATATGTG [CACACA_site2050]  10 ± 0.13
18. ACATATGAATATAATACACACTTGTATTCTTAATAT [CACACA_site5085]  10 ± 0.085
19. ATAATTCCATAAAATAGACACACGAATGTATAATAT [CACACA_site477]  10
20. GTTTACATCATTCTGGTGCAAAAAAAAAAAAAAATA  10.1 ± 0.41
21. ATTATATATAAACACACACACATGCATGCACATATA [CACACA_site4237]  10.06 ± 0.021
22. CATAAACTTTATAACACACACTTATAAATATAAATA [CACACA_site6646]  10.1 ± 0.17
23. GTATTTTGCATAAATGCATGTAAATATATACCTACC [TGCATGCA_site957]  10.1 ± 0.23
24. ATATTATTATTAGTTTCACACATTTAATGAAACTAA [CACACA_site5677]  10.1 ± 0.16
25. TGAAATAACCCATGTGCATGCACTTCAATAACTGAA [TGCATGCA_site1041]  10.1 ± 0.2
26. TATAACTTTTTTAATACACACAAATATTTATTTATA [CACACA_site7425]  10.1 ± 0.21
27. TGTATGTTAAATACAACACACAAAAAAAAACAAGTT [CACACA_site4324]  10.1 ± 0.11
28. ATACAAGTATTAATTACACACTCAAAAAGAAAAAAC [CACACA_site5287]  10.2 ± 0.26
29. GAACAATATATTTGCACACAAAAAATATATATTTAT [CACACA_site3317]  10.2 ± 0.24
30. CTTTTTAATTTATCGACACACGCATGAATAGAAATT [CACACA_site9112]  10.2 ± 0.28
31. TTTATTTATCTGAACACATGCAGACAAATAACATAT [TGCATGCA_site929]  10.2 ± 0.19
32. ATATATTTTGTTATGGTGCGTAAGAAATATATTCTT [GTGCAC_site9825]  10.2 ± 0.28
33. TTGTTGATTGTTATTTATCATTAGATGTAAAATATG [CACACA_negctrl_site927]  10.2 ± 0.12
34. AAACAGAATACATATACACACATACAAAAAAGTGCA [CACACA_site8235]  10.2 ± 0.3
35. AATGCTATCTTCTTATTTTTCATACACAACATGAAC [CACACA_negctrl_site1809]  10.2 ± 0.11
36. TATTTTTTTAAAAATACACACATAAAATCATGAAAA [CACACA_site1085]  10.18 ± 0.099
37. TTTTCTTTCTTGTTTCGTATATTATAAAAAAAAAAG [CACACA_negctrl_site854]  10.2 ± 0.4
38. GGTACATACAAACACACACACAAAAAAAAAAAAATA [CACACA_site1577]  10.2 ± 0.45
39. CACAGAAATATTCTTATACACACTGTTCTTATATTC [CACACA_site288]  10.16 ± 0.028
40. TAATATATATTATATACACACATATATATATATATA [CACACA_site428]  10.2 ± 0.59
41. TTATGTTGTAAATACACACATACATATACATACACA [CACACA_site733]  10.3 ± 0.15
42. TATTATATGTATTGCACACCTTCAACAACTACTTCT [CACACA_site655]  10.29 ± 0.092
43. TGGTAATACCCATACACACACACATACACATATATA [CACACA_site8877]  10.3 ± 0.2
44. TATGTTGTTTATTTAGTGCATATTTAAATATTATAA [GTGCAC_site9601]  10.3 ± 0.3
45. TATACAGATAAATACACACACATATATATATATATA [CACACA_site4178]  10.3 ± 0.46
46. ATTGTGCACTTATATGCACACATTTTAGTTTTTTTT [CACACA_site2028]  10.4 ± 0.34
47. TTTTTGTATTCTCCGGACTACATTATGTTGTAAATG [CACACA_negctrl_site691]  10.4 ± 0.25
48. TGTACAGTAAATACAACACACATTTGTATAAATATA [CACACA_site4705]  10.4 ± 0.078
49. TTTAATGAAAGAAACACATACGTATCAAAATATATG [TGCATGCA_negctrl_site510]  10.5 ± 0.17
50. GTTATAAAATATGGCACACAAAATGTAAGTAAATGA [CACACA_site1458]  10.5 ± 0.2
51. ATTACCATATAAAACACACAAACATACATACATACA [CACACA_site3729]  10.5 ± 0.2
52. GGCATACACGAACACACACACACACGCACATATATA [CACACA_site6426]  10.5 ± 0.45
53. ATATATATATGTCAAAGTACTAAAAATATATACATA [XGTACX_site3397]  10.7 ± 0.37
54. CAGTTGTTAATTTGTGTGCACCAAATATTATACATA  10.7 ± 0.55
55. CCATATGATATATATTGTACATTATATATTATTTCT [XGTACX_site1697]  10.7 ± 0.45
56. TACGTTGTATATTTTTGTACATATTGAATTACAAAA [XGTACX_site5906]  10.8 ± 0.54
57. TATCACATATTATGATGTACAAGGATTCTGACTAAT [XGTACX_site1196]  10.8 ± 0.4
58. CATATAAACAATAACACACACCTAGGTACATGGAAA [CACACA_site4615]  10.9 ± 0.48
59. GATCTTTAAATTTATTGTACATAAATGTATATGTTA [XGTACX_site1107]  10.9 ± 0.59
60. TATATATATATATATTGTACATATTAATATTAGAAA [XGTACX_site8923]  10.9 ± 0.62
61. TATTTGTAAAGACATGCATGGTACTTTTAAAACATA [TGCATGCA_site7]  11 ± 0.73
62. GTAATAAAAAATTAATGTACTTTATATAATATATTA [XGTACX_site5935]  11 ± 0.81
63. GGACTTTATAAAAATGGTACACGCAATTCTATAATC [XGTACX_site6515]  11 ± 0.65
64. GTTATAATTTAGTCAAGTACATGCGTATGTATATTC [XGTACX_site3763]  11 ± 0.74
65. GAATACTCATTTCTTTGTACATATATATGTGTATTT [XGTACX_site6411]  11.1 ± 0.58
66. TTCATATGGAATAAAAGTACGTATTAAAACAATTTT [XGTACX_site8742]  11.1 ± 0.59
67. TAATATATAAAAAGATGTACTTTTGCAAGTTCCTTT [XGTACX_site8519]  11.1 ± 0.78
68. TGGAGGTCAGTTCACAGTACCCAGAAACTCTACGAG [XGTACX_site2007]  11.1 ± 0.76
69. AATACTCAAAAGAATCGTACAAACAACACTCCCACG [XGTACX_site7564]  11.1 ± 0.69
70. TCTTTTAAACAGTACACACACACATATATATATATA [CACACA_site924]  11.2 ± 0.69
71. GGGCATATAATATAAAGTACAGGACTATAAAAATAT [XGTACX_site4481]  11.2 ± 0.8
72. TGTAGATAAAATAAACGTACGTATTGATTTTTTTCA [XGTACX_site1610]  11.2 ± 0.52
73. TTTTTGTCTGCATACGCACACACGTGGACCATCTTA [CACACA_site8303]  11.2 ± 0.8
74. AAAGCAAATAATAAGTGTACGGGTCAATATATGCGT [XGTACX_site1519]  11.3 ± 0.73
75. CATAGAATAATTTATTGTACGTGCATGCTATTTTTT [XGTACX_site8984]  11.3 ± 0.8
76. ATATATATATATGTATGTACGTATGTATGTATGAAT [XGTACX_site4857]  11.3 ± 0.84
77. AATGACATTCTTACACGTACAAAATAAAAAATAAAA [XGTACX_site6932]  11.3 ± 0.95
78. TTACATGTAAAAGGTACACACATTAGATATACAAAT [CACACA_site6651]  11.3 ± 0.84
79. ATATATATATGTGTGTGTACATATGATTTCGCACTT [XGTACX_site4449]  11.3 ± 0.76
80. GGATAAAAAATATGTACACACATATAGATATCTATA [CACACA_site2693]  11.4 ± 0.79
81. TATATATTATAAAATAGTACACAGAATTTAAATATA [XGTACX_site100]  11.4 ± 0.83
82. ATTAAATATATGATGTGTACATATTCGTGTATGTTT [XGTACX_site2141]  11.4 ± 0.71
83. TTTTTTTATATTTTTAGTACACATTGGTATATATAT [XGTACX_site4114]  11.4 ± 0.83
84. TATATATTATATTCATGTACGTAAAAATTTTGAATA [XGTACX_site6734]  11.4 ± 1
85. TATCATACCTTTTAATGTACACACATTTCTTTTTTG [XGTACX_site1655]  11.4 ± 0.8
86. TATACATTTTTATAAAGTACACAAAAATAAATATAA [XGTACX_site1647]  11.5 ± 0.95
87. TACCACTTTCGAAGTAGTACATGGCTTTTTTTTTTT [XGTACX_site8379]  11.5 ± 0.93
88. GTATAAAAATTTAGGAGTACAATATATTTATAATAT [XGTACX_site2127]  11.6 ± 1.1
89. TATATATATATATGTACACACACACCGATAAATAAA [CACACA_site8041]  11.6 ± 1.2
